The list shows a part of the results. At the low end of the ranking the order means little.
biological target: SIX1-Q177R homeodomain (UniProt Q15475); experiment: universal protein binding microarray; details: Universal all-10-mer PBM (8x60K, AMADID 030236), 300 nM GST-tagged protein, Alexa Fluor 488 anti-GST; buffer, salt, pH and temperature not stated; high values mean tight binding; most listed sequences are background and not binding sites; double strand, one strand shown

Row | Sequence | binding signal
1 | AGCTGCAA | -0.271 E-score
2 | AGGTCGCA | -0.186 E-score
3 | GACTGTGC | -0.0602 E-score
4 | AGCGCTAA | -0.21 E-score
5 | ATAAAAGC | -0.233 E-score
6 | GCGGCACC | 0.0983 E-score
7 | AATCCCTG | -0.0117 E-score
8 | GCCGAGGC | -0.0807 E-score
9 | GACGGTCC | -0.167 E-score
10 | CCTACTCC | 0.179 E-score
11 | CGGATCGA | -0.0219 E-score
12 | TAGGCTAA | -0.0334 E-score
13 | AGGCGTGG | -0.0826 E-score
14 | GTCGAGTA | 0.198 E-score
15 | GTACACAC | 0.355 E-score
16 | ATGGTGGC | 0.0215 E-score
17 | TATTGCGA | 0.106 E-score
18 | ATGATAAA | -0.16 E-score
19 | GGCCGCCC | -0.207 E-score
20 | CATCATGA | -0.0511 E-score
21 | AGCGGATC | 0.0137 E-score
22 | AGGGTACA | 0.237 E-score
23 | GGATTCCC | 0.09 E-score
24 | TACTGTGA | -0.124 E-score
25 | GATTGGGA | -0.135 E-score

Row | Sequence | binding signal
26 | GGACATGA | -0.203 E-score
27 | AGTTTACC | 0.00313 E-score
28 | GTTCGGAA | -0.0994 E-score
29 | GTTCCGGA | 0.175 E-score
30 | ACTACTCG | 0.203 E-score
31 | CACTTACC | 0.224 E-score
32 | ACAATGTA | 0.0524 E-score
33 | TGCCGGCA | 0.0673 E-score
34 | AAAGGACT | -0.266 E-score
35 | CAGATCGC | -0.0695 E-score
36 | CAGGTTCA | -0.0119 E-score
37 | ATTTTGTA | -0.185 E-score
38 | ATGGCGCA | -0.0733 E-score
39 | ATCGGAGG | 0.124 E-score
40 | AAGTCCAA | -0.255 E-score
41 | CTGATATA | 0.00826 E-score
42 | AGCACCGG | 0.206 E-score
43 | ACGCACTA | 0.0667 E-score
44 | CCAGCCCA | -0.0709 E-score
45 | AGTAAGTA | -0.0725 E-score
46 | CACGTATA | 0.21 E-score
47 | CGCATTCC | -0.164 E-score
48 | CGGCTGAC | 0.174 E-score
49 | GGACACGA | 0.356 E-score
50 | GTAGACAA | 0.0524 E-score

Row | Sequence | binding signal
51 | GGAGAAAC | 0.0311 E-score
52 | CGACGTCA | -0.282 E-score
53 | CTGCCATC | -0.244 E-score
54 | ACAATCGT | -0.152 E-score
55 | CTCAGCCA | -0.196 E-score
56 | CCTAGACG | -0.163 E-score
57 | CGCTATAC | 0.0171 E-score
58 | ATGTCGGA | 0.0279 E-score
59 | CTTGATGC | -0.234 E-score
60 | CAAGGTCG | -0.0416 E-score
61 | ATACATAG | -0.11 E-score
62 | TCGGTGCA | 0.232 E-score
63 | CAAACGAG | 0.042 E-score
64 | AATTTCTA | 0.0566 E-score
65 | CACGGCGC | 0.139 E-score
66 | CACCCCTG | 0.351 E-score
67 | AAATGGTC | -0.023 E-score
68 | ATTACGGA | -0.131 E-score
69 | CAAAATCA | -0.168 E-score
70 | AGGACTAC | -0.0622 E-score
71 | AATAACAC | 0.426 E-score
72 | ATTATACC | 0.141 E-score
73 | CCACGTGG | 0.098 E-score
74 | CCACCTAG | -0.018 E-score
75 | ATAGTCGG | 0.0728 E-score

Row | Sequence | binding signal
76 | ATGCGCTC | 0.0171 E-score
77 | GAGGCTCA | -0.172 E-score
78 | ATTAGCCG | -0.0403 E-score
79 | CCATTACC | 0.0802 E-score
80 | CTAAATCC | -0.0651 E-score
81 | GAAACATA | -0.0987 E-score
82 | CGGTGCCA | 0.19 E-score
83 | AAACCCTT | -0.049 E-score
84 | CGAGTAAA | -0.109 E-score
85 | CAAGTTTA | -0.133 E-score
86 | CACAGCCG | 0.208 E-score
87 | CTTCCGGA | -0.131 E-score
88 | GTCGATTA | 0.0341 E-score
89 | ATATCGTC | -0.0159 E-score
90 | CGTAACAA | -0.165 E-score
91 | CATCCCAA | -0.137 E-score
92 | GTTAAAGA | -0.0682 E-score
93 | ACATTACC | 0.0295 E-score
94 | AACTCTAC | 0.0642 E-score
95 | CAGTGACC | 0.144 E-score
96 | TCTCAAGA | -0.262 E-score
97 | CATCAGTC | -0.193 E-score
98 | GGAGGACA | 0.246 E-score
99 | ACCGAGCA | -0.00483 E-score
100 | AAGAACAG | -0.0217 E-score

Row | Sequence | binding signal
101 | AACTTTCG | -0.171 E-score
102 | AGGTATGA | -0.0502 E-score
103 | ACGTACTG | -0.0409 E-score
104 | CGAATTAG | -0.0119 E-score
105 | GTCCACAC | 0.211 E-score
106 | ATATTCGA | -0.131 E-score
107 | GACTCCGA | 0.198 E-score
108 | AAGTGTAG | 0.37 E-score
109 | TCTTCGAA | -0.0753 E-score
110 | AGTACCAG | 0.00298 E-score
111 | ATAGAGGG | 0.0878 E-score
112 | CACAGAGC | -0.144 E-score
113 | GTTAGGCA | -0.0878 E-score
114 | CTGTTTTA | -0.196 E-score
115 | GAGCGAGC | -0.118 E-score
116 | CTGTTAAA | -0.225 E-score
117 | AGGAGAAA | -0.253 E-score
118 | ATTCTTTC | -0.208 E-score
119 | TATACTCA | -0.0349 E-score
120 | CATTACCG | -0.116 E-score
121 | GACGCCGC | 0.151 E-score
122 | GGGCCGCA | 0.108 E-score
123 | ATCATCTA | -0.109 E-score
124 | GACAATAC | -0.005 E-score
125 | CGCACTAC | 0.152 E-score

Row | Sequence | binding signal
126 | CCTAGGAC | 0.0243 E-score
127 | ACGATCGA | 0.0502 E-score
128 | AGGCTAGC | -0.109 E-score
129 | GACACGTC | 0.381 E-score
130 | ACGCGACA | 0.133 E-score
131 | AGAGAAGA | -0.164 E-score
132 | CATATGAA | -0.172 E-score
133 | ACCCACGT | -0.0517 E-score
134 | ACAAGAAC | -0.0371 E-score
135 | ATTCTCTC | -0.0467 E-score
136 | ACATATTA | -0.0745 E-score
137 | CGAGTGAA | 0.0202 E-score
138 | ATGAGCAT | -0.131 E-score
139 | GCTGCGTA | -0.123 E-score
140 | CGCAGGCG | -0.0618 E-score
141 | AGCAGGCG | -0.111 E-score
142 | CTCCCAAG | 0.00752 E-score
143 | ATGTCTGA | -0.0182 E-score
144 | CAACGTAA | -0.139 E-score
145 | CGGGCCCC | 0.0486 E-score
146 | TGAGTCAA | -0.0259 E-score
147 | ATATTGAA | -0.0529 E-score
148 | GTAAGGCA | -0.0249 E-score
149 | CAGGCAAC | -0.123 E-score
150 | CCGGCAAG | -0.0574 E-score

Row | Sequence | binding signal
151 | CGGACCCC | 0.141 E-score
152 | AGAGTACT | -0.014 E-score
153 | CTTAGCCC | 0.0313 E-score
154 | CGTAAAAA | -0.217 E-score
155 | CACGTGCA | 0.218 E-score
156 | CACCCGAG | 0.297 E-score
157 | ACAGACCT | -0.25 E-score
158 | ATCCGCCA | -0.123 E-score
159 | CACTGACG | 0.179 E-score
160 | GCTAAACA | -0.0293 E-score
161 | CACGGAGA | 0.126 E-score
162 | AAGTACGA | -0.144 E-score
163 | CGTTCAAG | -0.0844 E-score
164 | CGGGGGGA | 0.0657 E-score
165 | ATAGCCCG | -0.156 E-score
166 | ATCCTTAA | -0.098 E-score
167 | CCGCCACC | -0.0188 E-score
168 | ATTCGGAA | -0.0641 E-score
169 | AGGAAGCC | -0.0946 E-score
170 | AAGAGCGT | -0.133 E-score
171 | CCTGTGCG | 0.0785 E-score
172 | ATCTGTGA | -0.0834 E-score

Source: publication PMC10668032
